Test results taken from PubChem BioAssay AID1963980 (Molecular Pharmacology Branch, DTP, NCI, 2024).
The source holds more than one record for some entries. The list is limited to them. The source may hold further records. Values that stand side by side repeat one measurement in other runs, samples, wells, individuals or studies.

Test system: 475296-252-R-J1-PDC spheroid viability
Test: Anticancer human tumor 475296-252-R-J1-PDC patient-derived rectal carcinoma cell line growth inhibition [PI3K]
Conditions: stronger effect = lower value, spheroids with HUVEC and MSC
Excerpt: Combinatorial screen of targeted agents with the PI3K inhibitors inavolisib, alpelisib, duvelisib, and copanlisib in multi-cell type tumor spheroids
A high-throughput screen of multi-cell type tumor spheroids was designed to identify active combinations of targeted small molecules and PI3K pathway inhibitors. Complex spheroids include a stromal component modeled by human endothelial cells (HUVEC) and fibroblasts modeled by human mesenchymal stem cells (MSCs). The concentration ranges selected for each drug and investigational agent were based upon clinically achievable concentrations if the clinical Cmax of the agent was known.
Compounds. The drugs and investigational agents: inavolisib (NSC800729), alpelisib (NSC765974), duvelisib (NSC772469), copanlisib (NSC816437), ipatasertib (NSC767898), afuresertib (NSC778305), talazoparib (NSC767125), sapanisertib (NSC764658), selumetinib (NSC741078), tovorafenib (DAY101, NSC766906), vemurafenib (NSC761431), ravoxertinib (NSC781343), sotorasib (NSC818433), MRTX1133 (NSC 836407), abemaciclib (NSC 768073), palbociclib (NSC758247), venetoclax (NSC 766270), SY5609 (NSC837396), enzalutamide (NSC755605), and darolutamide (NSC825331), were obtained from the National Cancer Institute (NCI) Developmental Therapeutics Program Chemical Repository. The FDA-approved anticancer drug set is available from the NCI Developmental Therapeutics Program. […] The stock solutions were prepared in dimethyl sulfoxide (DMSO, Sigma-Aldrich, St. Louis, MO, cat. D2650) at 800-fold the tested concentration and stored at -70 degrees C prior to their use. All drugs and investigational agents were tested over a range starting from a high concentration at or near the clinical Cmax and decreasing in half-log increments. If the clinical Cmax for an agent had not been determined, the highest concentration tested was 10 microM.
Cell Culture. All cells were maintained in an incubator at 37 degrees C and 5% CO2 with 95% humidity. The PDC lines were cultured according to standard operating procedures established by the NCI PDMR (https://pdmr.cancer.gov/sops/default.htm). All PDCs were thawed and cultured in Matrigel-coated flasks prepared with a working solution of 1X Ham's F-12 nutrient mix, without supplementation (Invitrogen, Waltham, MA, cat. 11765054), 100 U/mL penicillin-streptomycin (Invitrogen, cat. 15140122), and 2.5% Matrigel (Corning Inc., Corning, NY, cat. 354248) for the first three passages. The 354836-022-R-J1-PDC, 475296-252-R-J1-PDC, and 997726-040-R-J2-PDC lines were cultured in 6A media, which includes advanced DMEM/F-12 (Thermo Fisher Scientific, cat. 12634028), 10 mM HEPES (Thermo Fisher Scientific, cat. 15630080), 1X GlutaMAX supplement (Thermo Fisher Scientific, cat. 35050061), 0.1 mg/mL primocin (InvivoGen, San Diego, CA, cat. ant-pm-2), 10% defined fetal bovine serum, heat inactivated (HyClone Laboratories Inc., Logan, UT, cat. SH30070.03HI), 50% L-WRN conditioned media (ATCC, cat. CRL-3276), 1.25 mM N-Acetyl-L-cysteine (Sigma-Aldrich, cat. A9165), 10 mM nicotinamide (Sigma-Aldrich, cat. N0636), 1X B-27 supplement (Thermo Fisher Scientific, cat. 17504044), 1X N-2 supplement (Thermo Fisher Scientific, cat. 17502048), and 10 microM Y-27632 dihydrochloride (Tocris Bioscience, Bristol, United Kingdom, cat. 1254). The 624824-186-R-J2-PDC line was cultured in 6C/Colon 1B media, which includes all 6A media components plus 50 ng/mL human EGF recombinant protein (Thermo Fisher Scientific, cat. PHG0311). […]
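Also: spheroids exposed to agents for seven days before readout.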

## Cn1cnc2c(F)c(Nc3ccc(Br)cc3Cl)c(C(=O)NOCCO)cc21
Compound alone 0.949 µM
  viability, T/C: 86.4, 84.8, 67, 58.9%

## C#Cc1c(F)ccc2cc(O)cc(-c3ncc4c(N5CC6CCC(C5)N6)nc(OCC56CCCN5CC(F)C6)nc4c3F)c12 (centres undefined)
Compound alone 3.16 µM
  viability, T/C: 86.8, 72.3, 62.4, 59.4%

## C=CC(=O)N1CCN(c2nc(=O)n(-c3c(C)ccnc3C(C)C)c3nc(-c4c(O)cccc4F)c(F)cc23)C(C)C1 (centres undefined)
Compound alone 0.0316 µM
  viability, T/C: 101, 98.6, 76.6, 103%

## CNC(=O)c1ccc(N2C(=S)N(c3ccc(C#N)c(C(F)(F)F)c3)C(=O)C2(C)C)cc1F
Compound alone 0.0316 µM
  viability, T/C: 105, 86.9, 107, 112%

## CC(C)n1nc(-c2ccc3oc(N)nc3c2)c2c(N)ncnc21
Compound alone 0.01 µM
  viability, T/C: 76.4, 75.9, 88, 107%
Compound alone 0.0316 µM
  viability, T/C: 75.6, 61.6, 71.3, 88.5%

## CC1(C)CCC(CN2CCN(c3ccc(C(=O)NS(=O)(=O)c4ccc(NCC5CCOCC5)c([N+](=O)[O-])c4)c(Oc4cnc5[nH]ccc5c4)c3)CC2)=C(c2ccc(Cl)cc2)C1
Compound alone 10 µM
  viability, T/C: 66.5, 60, 100, 57.2%

## Cn1nccc1Nc1nccc(-c2ccn(C(CO)c3ccc(Cl)c(F)c3)c(=O)c2)n1 (centres undefined)
Compound alone 3.16 µM
  viability, T/C: 115, 98.2, 87.7, 101%

## CC1(C)CCC(Nc2ncc(C(F)(F)F)c(-c3c[nH]c4c(P(C)(C)=O)c(C#N)ccc34)n2)CN1 (centres undefined)
Compound alone 10 µM
  viability, T/C: 88.7, 80.9, 52.3, 56.9%
